Some of the results follow.
tested on: T1, Caupolican (Caup) homeodomain DNA-binding domain; test: PBM E-score (8-mer, recovered from the published 9-mer minima) (E-score (dimensionless, -0.5 to 0.5)); Drosophila protein; higher = stronger relative binding preference, active = 0.31 or more
T1 sequence: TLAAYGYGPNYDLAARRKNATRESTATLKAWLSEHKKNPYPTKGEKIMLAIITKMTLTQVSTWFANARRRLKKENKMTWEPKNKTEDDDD
Outline: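 An enrichment score, with higher meaning stronger, expresses relative binding preference for each short DNA word. The protein used was Caup's homeodomain DNA-binding domain (residues 214-303), produced by in vitro transcription and translation and tested at 100 nM on custom-designed protein binding microarrays. The 8-mer values were recovered from published 9-mer scores, each equal to the lower of its two constituent 8-mer scores.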

Sequence | PBM E-score
CTTGTTAA | active: 0.327
AACTGCCT | ≥ 0.0161
CGTACGAA | inactive: 0.0215
ATCCCCTC | inactive: -0.135
AAACTGCT | inactive: -0.0162
GAAGAAGA | inactive: 0.015
GAGATGTA | active: 0.329
CTGCTGTA | inactive: 0.0946
CCTGCTTA | inactive: -0.0545
CGGGGTGC | inactive: -0.216
CTACGGTA | inactive: 0.0475
TCGTCAAA | inactive: 0.0757
CCCGTTAC | inactive: 0.0202
AAACACAG | inactive: 0.273
AGCGAAGA | inactive: -0.102
AAGCTCCG | inactive: -0.123
ACTAATAG | inactive: 0.134
ATGGCGAC | inactive: -0.0851
GTACTGTA | inactive: 0.193
TCGGTCCA | inactive: -0.0904
GATTTTCC | inactive: -0.0697
AAACTGAC | inactive: 0.0172
CTCTTCAA | inactive: -0.113
ACGAACTA | ≥ 0.147
AACGATTC | inactive: 0.0478

Sequence | PBM E-score
ACTTTCGG | inactive: -0.0323
CAAGTCGG | inactive: 0.00372
CTACACAG | inactive: 0.235
GTAGGCAC | inactive: -0.096
CCGGAAAA | inactive: -0.0151
AGAATTGG | inactive: 0.0648
CGATATAA | inactive: 0.116
CCATCCGG | inactive: -0.16
ACCAATGC | inactive: -0.0832
ACTTCAAA | inactive: 0.0409
ACCCTTCG | inactive: -0.152
CAAAGTAA | inactive: 0.0946
AATTTGGA | inactive: 0.0747
AAGGGCTC | inactive: -0.179
AATTGTTG | inactive: 0.199
CGATGCCA | inactive: -0.0826
CACTCATA | inactive: 0.0823
ACAGATTG | inactive: 0.0908
GATAAAGA | inactive: 0.0509
CAAACCGC | inactive: -0.193
ACGCGCAA | inactive: -0.00735
GTGACTCA | inactive: -0.0435
GCAGTCAC | inactive: -0.0418
ACCACCTG | inactive: -0.031
ACCAGGGA | inactive: -0.049

Sequence | PBM E-score
CCGGGGAG | inactive: -0.223
ACTAGAAT | inactive: 0.138
AACTATGT | inactive: 0.273
AATCAAGT | inactive: 0.0906
ACACGACG | inactive: 0.246
ATGTAAGA | active: 0.332
ATTTGTCA | ≥ 0.248
ACTTCCAA | inactive: -0.0392
ATGCACAT | inactive: 0.22
CCGTAACA | inactive: 0.226
CGGCTGGC | inactive: -0.271
AGTACAGG | ≥ 0.234
GCGAAAGC | inactive: -0.183
ATAATGTC | inactive: 0.233
AGCATTTG | inactive: 0.0686
AAAGAAGG | inactive: -0.102
AAAATTTA | inactive: 0.0739
GCATCAAC | inactive: 0.0266
CCTGTAAG | inactive: 0.127
ACTTCCCA | inactive: 0.0176
ACGCCCGA | inactive: -0.121
CGAAAAAG | inactive: -0.0656
ACTGGCGG | inactive: -0.109
GTAAGTCA | inactive: 0.0871
CGGCCGAC | inactive: -0.163

Sequence | PBM E-score
ACAGAGAA | ≥ 0.12
CTAGGTGC | inactive: -0.162
TATTGAGA | ≥ 0.0995
ACCGGCGG | inactive: -0.229
CCTTTAAG | inactive: -0.138
CGACCGGA | inactive: -0.196
GTGGAAGA | inactive: -0.0964
GACTCTAA | inactive: -0.034
AGTATTCA | inactive: 0.103
TCATCCCA | inactive: -0.0872
CCAGTAAA | inactive: -0.0129
TAATTTCA | ≥ 0.174
CCTGGGCC | inactive: -0.341
AGGCTGCG | inactive: -0.144
TACATCCA | inactive: 0.292
CGCGGTAC | inactive: -0.0358
TCATAAGA | inactive: 0.144
ACCGAGTG | inactive: -0.0584
AATGCAGC | inactive: -0.135
GGGGCATA | inactive: -0.132
ACCAAAAG | inactive: 0.0453
CCGGATAG | inactive: -0.0618
GAGACCGA | inactive: -0.101
TCCAAAAA | inactive: 0.0799
CAACGTCA | inactive: 0.0536

Sequence | PBM E-score
AACGAACA | inactive: 0.305
GGCGCCGA | inactive: -0.127
AGCCTGCC | inactive: -0.204
CCGTCAGG | inactive: -0.168
ACTCCTGG | inactive: -0.124
CCGATACG | inactive: -0.105
AAGACTTC | inactive: -0.0381
GACCATGC | inactive: -0.00055
GTAATGGA | inactive: 0.141
TGACTCCA | inactive: -0.0443
TTAATAAA | ≥ 0.189
CATGAACC | inactive: 0.0853
CACGTAGC | inactive: -0.141
CCCCTAAG | inactive: -0.219
CGTTGCCC | inactive: -0.127
GAATTGGA | inactive: 0.0706
ATAGGCCG | inactive: -0.137
CACAGGTC | inactive: -0.0585
GTACTTAA | inactive: 0.189
ATACAAAC | inactive: 0.27
CTAGGAGA | inactive: 0.015
CACGTTCG | inactive: -0.0159
CGTGGCAG | inactive: -0.152
GTTAGGGA | inactive: -0.0714
CGCGTGGA | inactive: -0.177

Sequence | PBM E-score
ACCACGCG | inactive: -0.106
ATAGTGGG | inactive: 0.0287
CGTCATTA | inactive: 0.0577
ATCATCCC | inactive: -0.0251
CGTTTATC | inactive: -0.0316
AACCAACA | inactive: 0.177
ACTAAACA | inactive: 0.264
ATGACGAC | inactive: 0.141
GTCAACCA | inactive: 0.0944
GCCTGACC | inactive: -0.24
AGGTGAGC | inactive: -0.0846
ACCCCCTG | inactive: -0.205
AGTGGTGC | inactive: -0.0854
CCGACGAA | inactive: 0.0504
CAGTAAGA | inactive: 0.0875
ACCGTGGA | inactive: -0.107
ACTCACGG | inactive: -0.109
AGTGACCG | inactive: -0.144
GCCTAGGC | inactive: -0.182
CCTGGCTC | inactive: -0.189
ACGTCTAG | inactive: 0.0139
GATACTTA | inactive: 0.0275
CCAATCGA | inactive: -0.00478
AGCAGCTA | ≥ 0.0345
GACACCGA | inactive: 0.142

Sequence | PBM E-score
AACATAAG | inactive: 0.268
AACCCACC | inactive: -0.108
CACTCAGG | inactive: -0.00651
ACTGTTTA | inactive: 0.14
AAGCCATG | inactive: 0.0293
ATGTTAAC | active: 0.377
AGTCTCAG | inactive: -0.0464
ATCTACTA | ≥ 0.131
GTTGCATA | inactive: 0.101
CTTCCAAG | inactive: -0.0467
GAGCACAC | inactive: 0.00424
CAACTGGG | inactive: -0.137
CCCTGTTC | inactive: 0.0938
TGGCAGAA | inactive: -0.0527
GATCCCCA | inactive: -0.068
CGAATCTA | inactive: 0.03
AATGCTTA | inactive: 0.0915
AAACGAGA | inactive: 0.0722
GGGGTCAA | inactive: -0.07
AGTGCCTG | inactive: -0.0647
GGAAGTCA | inactive: -0.0842
AGCATGCC | inactive: -0.0456
CACGCTAA | inactive: 0.072
CGCCCGCA | inactive: -0.252
AGATCGAG | inactive: -0.00642

Sequence | PBM E-score
GCCCCCTA | inactive: -0.314
CAGTTAAC | inactive: -0.00501
GCTGCCCC | inactive: -0.251
ACCCATAA | inactive: 0.0412
AGGCATGG | inactive: -0.115
ATTGAGCG | inactive: 0.0017
AATGCATG | inactive: 0.189
CGGACTGC | inactive: -0.13
ATTCGTTA | inactive: 0.091
AATCTTGA | inactive: 0.0233
ATTTTCCG | inactive: 0.0331
CGTAAATA | inactive: 0.156
ACTTTCTC | inactive: -0.0817
GTCGATCA | inactive: 0.0748
GCCCGGTA | inactive: -0.104
GGTTTCAA | inactive: -0.0486
GCGTTGAA | inactive: -0.0243
CCGCGCCA | inactive: -0.296
CAGTTGAC | inactive: 0.111
AATAGAAC | inactive: 0.132
CTAGTAGA | inactive: 0.078
CTTGGGAA | inactive: -0.0551
CACGGCCC | inactive: -0.119
ACACCGTC | inactive: 0.0118
AGCGCCCG | inactive: -0.226

Sequence | PBM E-score
ACGATGCT | inactive: -0.0533
CCTAACCC | inactive: -0.172
GTCAGGAC | inactive: -0.0429
AACTAGAA | inactive: 0.142
GCCTTAGC | inactive: -0.148
GTGGTCTA | inactive: -0.144
GATGTCCC | inactive: 0.0951
ATTTTCGA | inactive: 0.0227
AAGATTAG | inactive: 0.073
AAACTCCC | inactive: -0.183
ATATGGAC | inactive: 0.0807
CCCATTCC | inactive: -0.138
CTTCAACC | inactive: 0.0105
GCAGGCCC | inactive: -0.267
GGGTAGAA | inactive: -0.0384
ATGAAATA | inactive: 0.149
GGGAGTAC | inactive: -0.0407
ATCCATAC | inactive: 0.142
ACCCAACG | inactive: -0.0688
AATCGCTA | inactive: 0.0699
CCTAAAGC | inactive: -0.0933
TGAACTCA | inactive: 0.0355
GCCCTGAA | inactive: -0.103
CAGATATA | inactive: 0.12

Source: the supplement of paper PMC3724861
